In patent US7423058B2, “Inhibitors of hepatitis C virus NS3 protease” (Schering Corporation, priority 2004, dated 2008) one finds Ki data, which are given here for 18 compounds.

The target of the assay is Recombinant heterodimeric HCV NS3/NS4A protease (strain 1a) (Hepatitis C virus genotype 1a, UniProt P27958). Description: Spectrophotometric assay for HCV protease inhibitory activity (chromogenic ester substrates). The assay is classed as biochemical. The note with it: Table 1: Ketones; read-out: Ki* Range. From the text: The present invention relates to novel HCV protease inhibitors. This utility can be manifested in their ability to inhibit the HCV NS2/NS4a serine protease.
Assay for HCV Protease Inhibitory Activity:
Spectrophotometric Assay: Spectrophotometric assay for the HCV serine protease can be performed on the inventive compounds by following the procedure described by R. Zhang et al, Analytical Biochemistry, 270 (1999) 268-275, the disclosure of which is incorporated herein by reference. The assay based on the proteolysis of chromogenic ester substrates is suitable for the continuous monitoring of HCV NS3 protease activity. The substrates are derived from the P side of the NS5A-NS5B junction sequence (Ac-DTEDVVX(Nva), where X=A or P) whose C-terminal carboxyl groups are esterified with one of four different chromophoric alcohols (3- or 4-nitrophenol, 7-hydroxy-4-methyl-coumarin, or 4-phenylazophenol). Illustrated below are the synthesis, characterization and application of these novel spectrophotometric ester substrates to high throughput screening and detailed kinetic evaluation of HCV NS3 protease inhibitors. Materials and Methods:
Materials: Chemical reagents for assay related buffers are obtained from Sigma Chemical Company (St. Louis, Mo.). Reagents for peptide synthesis were from Aldrich Chemicals, Novabiochem (San Diego, Calif.), Applied Biosystems (Foster City, Calif.) and Perseptive Biosystems (Framingham, Mass.). Peptides are synthesized manually or on an automated ABI model 431A synthesizer (from Applied Biosystems). UVNIS Spectrometer model LAMBDA 12 was from Perkin Elmer (Norwalk, Conn.) and 96-well UV plates were obtained from Corning (Corning, N.Y.). The prewarming block can be from USA Scientific (Ocala, Fla.) and the 96-well plate vortexer is from Labline Instruments (Melrose Park, Ill.). A Spectramax Plus microtiter plate reader with monochrometer is obtained from Molecular Devices (Sunnyvale, Calif.).
Protein concentrations are determined by the Biorad dye method using recombinant HCV protease standards previously quantified by amino acid analysis. Prior to assay initiation, the enzyme storage buffer (50 mM sodium phosphate pH 8.0, 300 mM NaCl, 10% glycerol, 0.05% lauryl maltoside and 10 mM DTT) is exchanged for the assay buffer (25 mM MOPS pH 6.5, 300 mM NaCl, 10% glycerol, 0.05% lauryl maltoside, 5 μM EDTA and 5 μM DTT) utilizing a Biorad Bio-Spin P-6 prepacked column. Substrate Synthesis and Purification: The synthesis of the substrates is done as reported by R. Zhang et al, (ibid.) and is initiated by anchoring Fmoc-Nva-OH to 2-chlorotrityl chloride resin using a standard protocol (K. Barlos et al, Int. J. Pept. Protein Res., 37 (1991), 513-520). The peptides are subsequently assembled, using Fmoc chemistry, either manually or on an automatic ABI model 431 peptide synthesizer. […] The combined filtrate and DCM wash is evaporated azeotropically (or repeatedly extracted by aqueous Na2CO3 solution) to remove the acid used in cleavage. The DCM phase is dried over Na2SO4 and evaporated.
The ester substrates are assembled using standard acid-alcohol coupling procedures (K. Holmber et al, Acta Chem. Scand., B33 (1979) 410-412). Peptide fragments are dissolved in anhydrous pyridine (30-60 mg/ml) to which 10 molar equivalents of chromophore and a catalytic amount (0.1 eq.) of para-toluenesulfonic acid (pTSA) were added. Dicyclohexylcarbodiimide (DCC, 3 eq.) is added to initiate the coupling reactions. Product formation is monitored by HPLC and can be found to be complete following 12-72 hour reaction at room temperature. Pyridine solvent is evaporated under vacuum and further removed by azeotropic evaporation with toluene.
As for `CC(C)[C@H](NC(=O)N[C@H](C(=O)N1C[C@H]2[C@@H]([C@H]1C(=O)NC(CC1CC1)C(=O)C(N)=O)C2(C)C)C1Cc2ccccc2C1)C(=O)C1CC1` (stereo partly drawn) [compound 4084], the Ki was under 75 nM. The same measure for `CC(C)[C@@H](CC(=O)c1cccs1)NC(=O)N[C@H](C(=O)N1C[C@H]2[C@@H]([C@H]1C(=O)NC(CC1CC1)C(=O)C(N)=O)C2(C)C)C(C)(C)C` (stereo partly drawn) [compound 4085]: under 75 nM; for `C=CCNC(=O)C(=O)C(CCC(F)(F)F)NC(=O)[C@@H]1[C@@H]2[C@H](CN1C(=O)[C@@H](NC(=O)N[C@H](C(=O)C1CC1)C(C)C)C1CCCCC1)C2(C)C` (stereo partly drawn) [compound 4086]: under 75 nM. The same measure for `Cc1cnc(C(=O)[C@@H](NC(=O)N[C@H](C(=O)N2C[C@H]3[C@@H]([C@H]2C(=O)NC(CC2CC2)C(=O)C(N)=O)C3(C)C)C(C)(C)C)C(C)C)s1` (stereo partly drawn) [compound 4087]: under 75 nM; for `C=CCNC(=O)C(=O)C(CCC)NC(=O)[C@@H]1[C@@H]2[C@H](CN1C(=O)[C@@H](NC(=O)N[C@H](C(=O)c1ccc(OC)cc1)C(C)C)C(C)(C)C)C2(C)C` (stereo partly drawn) [compound 4088]: under 75 nM; for `CC(C)[C@H](NC(=O)N[C@H](C(=O)N1C[C@H]2[C@@H]([C@H]1C(=O)NC(CC1CC1)C(=O)C(N)=O)C2(C)C)C(C)(C)C)C(=O)C1CCC1` (stereo partly drawn) [compound 4089]: under 75 nM. The same measure for `CN(C)c1ccc(C(=O)[C@@H](NC(=O)N[C@H](C(=O)N2C[C@H]3[C@@H]([C@H]2C(=O)NC(CC2CC2)C(=O)C(N)=O)C3(C)C)C(C)(C)C)C2CCCCC2)cc1` (stereo partly drawn) [compound 4090]: under 75 nM.

On to `CCCC(NC(=O)[C@@H]1[C@@H]2[C@H](CN1C(=O)[C@@H](NC(=O)N[C@H](C(=O)C1CC1)C1CCCCC1)C(C)(C)C)C2(C)C)C(=O)C(N)=O` (stereo partly drawn) [compound 4091], for which the inhibition constant (Ki) is under 75 nM. The figure for `CC1(C)[C@@H]2[C@@H](C(=O)NC(CC3CC3)C(=O)C(N)=O)N(C(=O)[C@@H](NC(=O)N[C@H](C(=O)C3CC3)C3CCCCC3)C3Cc4ccccc4C3)C[C@@H]21` (stereo partly drawn) [compound 4092] is under 75 nM. The figure for `C=CCNC(=O)C(=O)C(CCC(F)(F)F)NC(=O)[C@@H]1[C@@H]2[C@H](CN1C(=O)[C@@H](NC(=O)N[C@H](C(=O)C1CC1)C(C)C)C(C)(C)C)C2(C)C` (stereo partly drawn) [compound 4093] is under 75 nM. As for `COc1cccc(C(=O)[C@@H](NC(=O)N[C@H](C(=O)N2C[C@H]3[C@@H]([C@H]2C(=O)NC(CC2CC2)C(=O)C(N)=O)C3(C)C)C(C)(C)C)C(C)C)c1` (stereo partly drawn) [compound 4094], the Ki was under 75 nM.

In the case of `CC(C)[C@H](NC(=O)N[C@H](C(=O)N1C[C@H]2[C@@H]([C@H]1C(=O)NC(CC1CC1)C(=O)C(N)=O)C2(C)C)C(C)(C)C)C(=O)c1ccncc1` (stereo partly drawn) [compound 4095], the Ki is under 75 nM. Turning to `CC(C)[C@@H](CC(=O)c1ccccn1)NC(=O)N[C@H](C(=O)N1C[C@H]2[C@@H]([C@H]1C(=O)NC(CC1CC1)C(=O)C(N)=O)C2(C)C)C(C)(C)C` (stereo partly drawn) [compound 4096], the Ki was under 75 nM. The figure for `CC(C)(C)[C@H](NC(=O)N[C@H](C(=O)N1C[C@H]2[C@@H]([C@H]1C(=O)NC(CC1CC1)C(=O)C(N)=O)C2(C)C)C(C)(C)C)C(=O)CCc1ccccc1` (stereo partly drawn) [compound 4097] is under 75 nM; for `CC(C)[C@H](NC(=O)N[C@H](C(=O)N1C[C@H]2[C@@H]([C@H]1C(=O)NC(CC1CC1)C(=O)C(N)=O)C2(C)C)C(C)(C)C)C(=O)c1ncco1` (stereo partly drawn) [compound 4098] it is under 75 nM. The figure for `CC(C)[C@H](NC(=O)N[C@H](C(=O)N1C[C@H]2[C@@H]([C@H]1C(=O)NC(CC1CC1)C(=O)C(N)=O)C2(C)C)C(C)(C)C)C(=O)c1cccc(Br)n1` (stereo partly drawn) [compound 4100] is under 75 nM; for `C=CCNC(=O)C(=O)C(CCC)NC(=O)[C@@H]1[C@@H]2[C@H](CN1C(=O)[C@@H](NC(=O)N[C@H](C(=O)c1ccccn1)C(C)C)C(C)(C)C)C2(C)C` (stereo partly drawn) [compound 4101] it is under 75 nM; for `C=CCNC(=O)C(=O)C(CCC)NC(=O)[C@@H]1[C@@H]2[C@H](CN1C(=O)[C@@H](NC(=O)N[C@H](C(=O)c1ccccc1)C(C)C)C(C)(C)C)C2(C)C` (stereo partly drawn) [compound 4102] it is under 75 nM.

As usually defined, the Ki is a measure of affinity in units of concentration, obtained from inhibition or displacement.
